# The other results are listed elsewhere or left out.
# Experiments:
# Test in all cases: glycan array binding signal (z-score within array); higher = stronger binding
# Details in all cases: glycan notation: IUPAC condensed, linker removed
# [1] = biological target: Fuc(a1-2)[GalNAc(a1-3)]Gal(b1-3)GalNAc(a1-3)[Fuc(a1-2)]Gal(b1-4)GlcNAc
# Outline: (§1)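 Glycan array binding is given as a within-array Z-score, which can be read as non-binding when negative. The arrays, 3228 of them, came from the Consortium for Functional Glycomics database and were retained only where the protein sequence was available. Z-scores were averaged across arrays of the same protein sequence at different concentrations or buffers and across linkers.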
# [2] = biological target: Fuc(a1-2)[GalNAc(a1-3)]Gal(b1-3)GalNAc(b1-3)Gal(a1-4)Gal(b1-4)Glc
# Outline: as §1
# [3] = biological target: Fuc(a1-2)[GalNAc(a1-3)]Gal(b1-3)GlcNAc
# Outline: as §1
# [4] = biological target: Fuc(a1-2)[GalNAc(a1-3)]Gal(b1-3)GlcNAc(b1-2)Man(a1-3)[Fuc(a1-2)[GalNAc(a1-3)]Gal(b1-3)GlcNAc(b1-2)Man(a1-6)]Man(b1-4)GlcNAc(b1-4)GlcNAc
# Outline: as §1
# [5] = biological target: Fuc(a1-2)[GalNAc(a1-3)]Gal(b1-3)GlcNAc(b1-2)Man(a1-3)[Fuc(a1-2)[GalNAc(a1-3)]Gal(b1-3)GlcNAc(b1-2)Man(a1-6)]Man(b1-4)GlcNAc(b1-4)[Fuc(a1-6)]GlcNAc
# Outline: as §1
# [6] = biological target: Fuc(a1-2)[GalNAc(a1-3)]Gal(b1-3)GlcNAc(b1-3)GalNAc
# Outline: as §1
# [7] = biological target: Fuc(a1-2)[GalNAc(a1-3)]Gal(b1-3)GlcNAc(b1-6)GalNAc
# Outline: as §1
# [8] = biological target: Fuc(a1-2)[GalNAc(a1-3)]Gal(b1-4)Glc
# Outline: as §1
# [9] = biological target: Fuc(a1-2)[GalNAc(a1-3)]Gal(b1-4)GlcNAc
# Outline: as §1
# [10] = biological target: Fuc(a1-2)[GalNAc(a1-3)]Gal(b1-4)GlcNAc(b1-2)Man
# Outline: as §1
# [11] = biological target: Fuc(a1-2)[GalNAc(a1-3)]Gal(b1-4)GlcNAc(b1-2)Man(a1-3)[Fuc(a1-2)[GalNAc(a1-3)]Gal(b1-4)GlcNAc(b1-2)Man(a1-6)]Man(b1-4)GlcNAc(b1-4)GlcNAc
# Outline: as §1
# [12] = biological target: Fuc(a1-2)[GalNAc(a1-3)]Gal(b1-4)GlcNAc(b1-2)Man(a1-3)[Fuc(a1-2)[GalNAc(a1-3)]Gal(b1-4)GlcNAc(b1-2)Man(a1-6)]Man(b1-4)GlcNAc(b1-4)[Fuc(a1-6)]GlcNAc
# Outline: as §1
# [13] = biological target: Fuc(a1-2)[GalNAc(a1-3)]Gal(b1-4)GlcNAc(b1-2)Man(a1-3)[GalNAc(a1-3)[Fuc(a1-2)]Gal(b1-4)GlcNAc(b1-2)Man(a1-6)]Man(b1-4)GlcNAc(b1-4)GlcNAc
# Outline: as §1
# [14] = biological target: Fuc(a1-2)[GalNAc(a1-3)]Gal(b1-4)GlcNAc(b1-3)Gal(b1-4)GlcNAc
# Outline: as §1
# [15] = biological target: Fuc(a1-2)[GalNAc(a1-3)]Gal(b1-4)GlcNAc(b1-3)Gal(b1-4)GlcNAc(b1-3)Gal(b1-4)GlcNAc
# Outline: as §1
# [16] = biological target: Fuc(a1-2)[GalNAc(a1-3)]Gal(b1-4)GlcNAc(b1-3)GalNAc
# Outline: as §1
# [17] = biological target: Fuc(a1-2)[GalNAc(a1-3)]Gal(b1-4)GlcNAc(b1-3)[Fuc(a1-2)[GalNAc(a1-3)]Gal(b1-4)GlcNAc(b1-6)]GalNAc
# Outline: as §1
# [18] = biological target: Fuc(a1-2)[GalNAc(a1-3)]Gal(b1-4)GlcNAc(b1-6)GalNAc
# Outline: as §1
# [19] = biological target: Fuc(a1-2)[GalNAc(a1-3)]Gal(b1-4)[Fuc(a1-3)]GlcNAc
# Outline: as §1
# [20] = biological target: Fuc(a1-2)[GalNAc(a1-3)]Gal(b1-4)[Fuc(a1-3)]GlcNAc(b1-3)GalNAc
# Outline: as §1
# [21] = biological target: Fuc(a1-2)[GalNAc(a1-4)]Gal(b1-4)GlcNAc
# Outline: as §1
# [22] = biological target: Fuc(a1-2)[GalNAc(b1-3)]Gal
# Outline: as §1
# Fuc(a1-3)GlcNAc = biological target: Fuc(a1-3)GlcNAc
# Outline: as §1
# [23] = biological target: Fuc(a1-3)[Gal(b1-4)]Glc6S
# Outline: as §1
# [24] = biological target: Fuc(a1-3)[Gal(b1-4)]GlcNAc
# Outline: as §1
# [25] = biological target: Fuc(a1-3)[Gal(b1-4)]GlcNAc(b1-2)Man
# Outline: as §1
# [26] = biological target: Fuc(a1-3)[Gal(b1-4)]GlcNAc(b1-2)Man(a1-3)[Fuc(a1-3)[Gal(b1-4)]GlcNAc(b1-2)Man(a1-6)]Man(b1-4)GlcNAc(b1-4)GlcNAc
# Outline: as §1
# [27] = biological target: Fuc(a1-3)[Gal(b1-4)]GlcNAc(b1-2)Man(a1-3)[Fuc(a1-3)[Gal(b1-4)]GlcNAc(b1-2)Man(a1-6)]Man(b1-4)GlcNAc(b1-4)[Fuc(a1-6)]GlcNAc
# Outline: as §1
# [28] = biological target: Fuc(a1-3)[Gal(b1-4)]GlcNAc(b1-2)Man(a1-6)[Gal(b1-4)GlcNAc(b1-2)Man(a1-3)]Man(b1-4)GlcNAc(b1-4)GlcNAc
# Outline: as §1
# [29] = biological target: Fuc(a1-3)[Gal(b1-4)]GlcNAc(b1-3)Gal(b1-3)[Fuc(a1-4)]GlcNAc
# Outline: as §1
# [30] = biological target: Fuc(a1-3)[Gal(b1-4)]GlcNAc(b1-3)Gal(b1-4)[Fuc(a1-3)]GlcNAc
# Outline: as §1
# [31] = biological target: Fuc(a1-3)[Gal(b1-4)]GlcNAc(b1-3)Gal(b1-4)[Fuc(a1-3)]GlcNAc(b1-3)Gal(b1-4)[Fuc(a1-3)]GlcNAc
# Outline: as §1
# [32] = biological target: Fuc(a1-3)[Gal(b1-4)]GlcNAc(b1-3)GalNAc
# Outline: as §1
# [33] = biological target: Fuc(a1-3)[Gal(b1-4)]GlcNAc(b1-4)Gal(b1-4)[Fuc(a1-3)]GlcNAc
# Outline: as §1
# [34] = biological target: Fuc(a1-3)[Gal(b1-4)]GlcNAc(b1-4)Gal(b1-4)[Fuc(a1-3)]GlcNAc(b1-4)Gal(b1-4)[Fuc(a1-3)]GlcNAc
# Outline: as §1
# [35] = biological target: Fuc(a1-3)[Gal(b1-4)]GlcNAc(b1-6)GalNAc
# Outline: as §1
# [36] = biological target: Fuc(a1-3)[Gal(b1-4)]GlcNAc(b1-6)[Gal(b1-3)GlcNAc(b1-3)]Gal(b1-4)Glc
# Outline: as §1
binder,measurement,setting,value
"HPA (Helix pomatia), Q575S3 (protein) MWAHLTGLLLICALSLSAAQRAQTGEIDCGSDSSWPKDPSDNPNRDNTREIVKHVTFSPQFCREPKVILSVTTLDAEHTKNLRYEARLKSVSPSGLSASCYSWHDGTIYRMKLSWLAVED",glycan array binding signal (z-score),[1],4.9
same,glycan array binding signal (z-score),[2],4.46
same,glycan array binding signal (z-score),[3],3.71
same,glycan array binding signal (z-score),[4],3.17
same,glycan array binding signal (z-score),[5],2.11
same,glycan array binding signal (z-score),[6],2.06
same,glycan array binding signal (z-score),[7],2.39
same,glycan array binding signal (z-score),[8],3.04
same,glycan array binding signal (z-score),[9],3.1
same,glycan array binding signal (z-score),[10],3.78
same,glycan array binding signal (z-score),[11],4.18
same,glycan array binding signal (z-score),[12],2.27
same,glycan array binding signal (z-score),[13],3.86
same,glycan array binding signal (z-score),[14],4.44
same,glycan array binding signal (z-score),[15],4.28
same,glycan array binding signal (z-score),[16],2.8
same,glycan array binding signal (z-score),[17],3.69
same,glycan array binding signal (z-score),[18],2.54
same,glycan array binding signal (z-score),[19],2.72
same,glycan array binding signal (z-score),[20],-0.215
same,glycan array binding signal (z-score),[21],5.52
same,glycan array binding signal (z-score),[22],0.282
same,glycan array binding signal (z-score),Fuc(a1-3)GlcNAc,-0.267
same,glycan array binding signal (z-score),[23],-0.25
same,glycan array binding signal (z-score),[24],-0.263
same,glycan array binding signal (z-score),[25],-0.252
same,glycan array binding signal (z-score),[26],-0.262
same,glycan array binding signal (z-score),[27],-0.233
same,glycan array binding signal (z-score),[28],-0.317
same,glycan array binding signal (z-score),[29],-0.258
same,glycan array binding signal (z-score),[30],-0.249
same,glycan array binding signal (z-score),[31],-0.265
same,glycan array binding signal (z-score),[32],-0.239
same,glycan array binding signal (z-score),[33],-0.25
same,glycan array binding signal (z-score),[34],-0.271
same,glycan array binding signal (z-score),[35],-0.209
same,glycan array binding signal (z-score),[36],-0.251
